Measured values reported in the supplement of paper PMC10126150.
Values marked as one replicate rest on one cluster of the flow cell; about a third of the high ones do not repeat.

Test system: ATP
Test: switch fluorescence ratio, 500 uM ATP over buffer (Cy3 cluster intensity, sum of 5 cycles each) (fold (ratio)); higher = stronger signal-on switching upon ATP binding; sequences stand for … in TCGTCGGCAGCGTCAGATGTGTATAAGAGACAGTTTTTTTTTTTTTTTTTTTTTTTTT…TC
Conditions: aptamer strand: ATP DNA aptamer (quencher-CACCTGGGGGAGTATTGCGGAGGAAGG + anchor), 100 nM annealed; ATP concentration: 500 uM; one replicate
Summary of the method: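 Cy3-labelled switching-strand clusters on a modified Illumina MiSeq flow-cell were annealed to 100 nM quencher-labelled ATP aptamer, imaged in selection buffer, then imaged after 15 min with 500 uM ATP at 22 °C. Five buffer/ATP cycles ran, with NaOH stripping and re-annealing between them. The fluorescence ratio is summed target-cycle over summed buffer-cycle Cy3 intensity per cluster, averaged per switch-domain sequence. Clusters outside 100-1000 RFU were excluded.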
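Also: ATP exposure 15 min at 22 °C before imaging.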

## TTTGGTACAT
  switch fluorescence ratio: 1.03

## ACCGAAATCG
  switch fluorescence ratio: 1.05

## AATAATCGTG
  switch fluorescence ratio: 0.994

## GGTACGGGT
  switch fluorescence ratio: 0.967

## TAAGTCTGCG
  switch fluorescence ratio: 0.927

## ATAATATTT
  switch fluorescence ratio: 1.05

## ATCGGCGTC
  switch fluorescence ratio: 0.975

## CAATGGTAGA
  switch fluorescence ratio: 1.01

## TACACTTAAC
  switch fluorescence ratio: 1.11

## TGCGGGGTC
  switch fluorescence ratio: 0.892

## TAAGTCTTAA
  switch fluorescence ratio: 0.939

## ATTAACTATC
  switch fluorescence ratio: 0.937

## AAGCGTCATC
  switch fluorescence ratio: 1.01

## TGTAACAGT
  switch fluorescence ratio: 1.06

## CTCCAATTGT
  switch fluorescence ratio: 1.1

## GTGGTGAATG
  switch fluorescence ratio: 0.993

## TCGGGTGTTT
  switch fluorescence ratio: 1.04

## TTATCTTATA
  switch fluorescence ratio: 1.01

## CATTAGGTGG
  switch fluorescence ratio: 0.988

## TCAGTGCAAC
  switch fluorescence ratio: 1.01

## TAAACGATTG
  switch fluorescence ratio: 0.974

## GAGGACAGCG
  switch fluorescence ratio: 1.06

## TACGCCGATT
  switch fluorescence ratio: 1.06

## ATTATCTATA
  switch fluorescence ratio: 1.01

## CGTATCTAGA
  switch fluorescence ratio: 0.985

## TGAATGCGTA
  switch fluorescence ratio: 1.02

## TTGCTCGCTA
  switch fluorescence ratio: 1.2

## ATTTGGCCCT
  switch fluorescence ratio: 1.06

## ATATTGTTTC
  switch fluorescence ratio: 1.01

## AACCTGTAGC
  switch fluorescence ratio: 1.32

## AAGCGCGAAG
  switch fluorescence ratio: 1.11

## GGTGGAGCCG
  switch fluorescence ratio: 0.993

## CCCCTGGACA
  switch fluorescence ratio: 1.01

## GGGACCTTGC
  switch fluorescence ratio: 1.91

## ACTCTATTCG
  switch fluorescence ratio: 1.08

## GATAATCTTT
  switch fluorescence ratio: 1.02

## ATTCATTCAC
  switch fluorescence ratio: 1.05

## GGGTTACTTA
  switch fluorescence ratio: 1.01

## CTGTGATGTA
  switch fluorescence ratio: 0.994

## AGCTGTGAAC
  switch fluorescence ratio: 0.994

## TTCTAAGCTT
  switch fluorescence ratio: 1.15

## CTTGCTAGCT
  switch fluorescence ratio: 1.02

## CAGTCTTTTC
  switch fluorescence ratio: 0.932

## GCCTTTAACC
  switch fluorescence ratio: 1.04

## TAAGGCCGAT
  switch fluorescence ratio: 0.995

## TGCGGATAAA
  switch fluorescence ratio: 1.02

## GTCGTATTC
  switch fluorescence ratio: 0.972

## GATCAGGCCA
  switch fluorescence ratio: 1.01

## GGCAGTACTT
  switch fluorescence ratio: 1.42

## GCGCAATTCG
  switch fluorescence ratio: 2.39

## CTCTGACGGG
  switch fluorescence ratio: 1.02

## GGAGAGACGC
  switch fluorescence ratio: 0.966

## CAGCGGTACG
  switch fluorescence ratio: 1.07

## TTCATCATC
  switch fluorescence ratio: 0.995

## AGTCCATGGG
  switch fluorescence ratio: 0.978

## GTTGGCAACT
  switch fluorescence ratio: 0.992

## GGCACAACAT
  switch fluorescence ratio: 1.01

## AGCCCATTAC
  switch fluorescence ratio: 2.32

## CCCAGTACAG
  switch fluorescence ratio: 1.06

## GCGAAGTCGA
  switch fluorescence ratio: 1.04

## TTGTCGTTCA
  switch fluorescence ratio: 1.02

## TGATGCTAA
  switch fluorescence ratio: 1.04

## CAAAAAGGGT
  switch fluorescence ratio: 0.925

## TACAGGGGTT
  switch fluorescence ratio: 1

## AATTCGGAGT
  switch fluorescence ratio: 1

## TCTGTAAATA
  switch fluorescence ratio: 0.998

## GAGTGCCCAG
  switch fluorescence ratio: 1.01

## TAGGTTACTG
  switch fluorescence ratio: 0.953

## GATAAAACAT
  switch fluorescence ratio: 0.995

## CGTTCTGCAC
  switch fluorescence ratio: 1.34

## AAATGTAAGT
  switch fluorescence ratio: 0.992

## GGCCATCCTG
  switch fluorescence ratio: 0.984

## TCGCTTGACC
  switch fluorescence ratio: 1.07

## GGGAGATAAA
  switch fluorescence ratio: 1.01

## TGGGCCCATA
  switch fluorescence ratio: 1.05

## TCATAATTAC
  switch fluorescence ratio: 1.11

## ACTTATCCGC
  switch fluorescence ratio: 1.76

## AATGTGGGAG
  switch fluorescence ratio: 1.01

## CGTTGCGCTT
  switch fluorescence ratio: 1.05

## CGGATCTCTA
  switch fluorescence ratio: 1.03

## TCCAGATTAT
  switch fluorescence ratio: 0.995

## ATTAACGTCG
  switch fluorescence ratio: 1.05

## ATCTGTGGTG
  switch fluorescence ratio: 0.974

## TTGAGCCTTT
  switch fluorescence ratio: 1.04

## TCTTTTACTC
  switch fluorescence ratio: 1.02

## GTGGTTAGCT
  switch fluorescence ratio: 0.98

## AAGTACACAC
  switch fluorescence ratio: 1.28

## CATTAGTTTG
  switch fluorescence ratio: 0.994

## AAGTCTGCAT
  switch fluorescence ratio: 1.11

## TCACGATGGC
  switch fluorescence ratio: 0.996

## GCATCATGTG
  switch fluorescence ratio: 1.01

## TTCGGTAATT
  switch fluorescence ratio: 1.03

## CTTTAGTAAA
  switch fluorescence ratio: 1.02

## ATTGTGATTT
  switch fluorescence ratio: 0.986

## TGGCGTTGGA
  switch fluorescence ratio: 1.02

## GCAAGTACAA
  switch fluorescence ratio: 1.33

## AGCTTTCGGA
  switch fluorescence ratio: 1.33

## CATGGGGGGC
  switch fluorescence ratio: 0.996

## GTTTGATGGT
  switch fluorescence ratio: 0.999

## CGAAGCGGAG
  switch fluorescence ratio: 1.21

## CTGGTGGATC
  switch fluorescence ratio: 0.969

## GGCCCTAAGA
  switch fluorescence ratio: 0.969

## GTTCCCATGA
  switch fluorescence ratio: 1.04

## GTTAGTCTTT
  switch fluorescence ratio: 0.984

## ACAGGGGTAC
  switch fluorescence ratio: 1.06

## TGAATTTCGG
  switch fluorescence ratio: 0.968

## TGAGAGAGCA
  switch fluorescence ratio: 1.04

## ATGGTTCAGC
  switch fluorescence ratio: 1.03

## TCTCTCTCGC
  switch fluorescence ratio: 1.28

## CTGTTGGCG
  switch fluorescence ratio: 0.943

## CTTTGCATG
  switch fluorescence ratio: 1.03

## CGTTAGTTGT
  switch fluorescence ratio: 1.01

## ACGACGGGTG
  switch fluorescence ratio: 1.36

## TGGGACTGG
  switch fluorescence ratio: 1.02

## CGCCCACCCT
  switch fluorescence ratio: 1.04

## TCACCTGGCG
  switch fluorescence ratio: 0.981

## CAAGAATT
  switch fluorescence ratio: 1.01

## GCCCGTTATG
  switch fluorescence ratio: 1

## AATATAT
  switch fluorescence ratio: 1

## TTTGGTCGTA
  switch fluorescence ratio: 1.03

## GGGTCTAATC
  switch fluorescence ratio: 1.03

## AGGTAAAATA
  switch fluorescence ratio: 1.02

## TGACATACCT
  switch fluorescence ratio: 1.38

## AGGGCGAGAA
  switch fluorescence ratio: 1.08

## AGCATAGTCT
  switch fluorescence ratio: 1.08

## TAGGTTGTTA
  switch fluorescence ratio: 0.959

## ACGCTGCAAC
  switch fluorescence ratio: 3.35

## CTTGGGCGGC
  switch fluorescence ratio: 0.984

## CTAGACGCAT
  switch fluorescence ratio: 2.01

## CCGGTAGAGG
  switch fluorescence ratio: 1.02

## TCTTTATTGG
  switch fluorescence ratio: 1

## AATGGCCGC
  switch fluorescence ratio: 0.961

## AATTTTATCC
  switch fluorescence ratio: 1.05

## TACGGAGGCT
  switch fluorescence ratio: 1.03

## GTAAACTATG
  switch fluorescence ratio: 0.963

## TTCCATTCCG
  switch fluorescence ratio: 1.09

## TCTGTGGCGG
  switch fluorescence ratio: 0.995

## AGTGTATTTT
  switch fluorescence ratio: 0.989

## TCCCCTTCCG
  switch fluorescence ratio: 2.06

## TCTTAATAAA
  switch fluorescence ratio: 0.978

## AGCTAGTCGT
  switch fluorescence ratio: 1

## GACTACAGGC
  switch fluorescence ratio: 1.04

## ATTTGGAGA
  switch fluorescence ratio: 1.04

## AGTTCTCCCG
  switch fluorescence ratio: 1.06

## AGGCTATATA
  switch fluorescence ratio: 1.01

## TGATACGCGC
  switch fluorescence ratio: 1.08

## CCTGAAGATT
  switch fluorescence ratio: 1.05

## CTAGGGCCGC
  switch fluorescence ratio: 1

## CAAATATATC
  switch fluorescence ratio: 0.96

## AATGGGTGTA
  switch fluorescence ratio: 1.03

## TATTGGAGAC
  switch fluorescence ratio: 0.982

## ATAAGGGAT
  switch fluorescence ratio: 1.01

## TAGGACTTAT
  switch fluorescence ratio: 1.03

## GCTTTCAACG
  switch fluorescence ratio: 1.06

## ATTGAAAATC
  switch fluorescence ratio: 1.06

## AACATATAAC
  switch fluorescence ratio: 1

## CACGTCTCAA
  switch fluorescence ratio: 1.02
